The values that follow come from patent US20060148828A1, “Combination comprising a CDK inhibitor and a topoisomerase 1 inhibitor for the treatment of cancer and other proliferative diseases” (Cyclacel Limited, priority 2003, published 2006).

Experiment [1] concerns mut-p53 HT29 cells. Kind of experiment: Western blot of p21WAF1/CIP1 and cdk1 protein expression. It is filed as cell-based, human. Conditions: 1 μM CPT-11.
Experiment [2] concerns mut-p53 HT29 cells. The experiment can be described thus: Cell cycle progression (BrdU incorporation). The conditions noted are these: 1 μM CPT-11, up to 36 h, G0/G1 synchronized cells. On the technique in general: Dividing cells build labelled thymidine or BrdU into new DNA.

For the compound `CCc1c2c(nc3ccc(OC(=O)N4CCC(N5CCCCC5)CC4)cc13)-c1cc3c(c(=O)n1C2)COC(=O)[C@]3(O)CC` [CPT-11, irinotecan], the cdk1 protein levels entry in the experiment with mut-p53 HT29 cells [1] was “increased levels of cdk1”. Further, in the experiment with mut-p53 HT29 cells [2], the cell cycle blockage entry is listed as “arrested in late S phase”.
